Results on one compound are retold here after US5753516A, “Screening method for ligands of the EBI-1 receptor” (priority 1995, dated 1998).

Like-named read-outs stand apart in the source and are kept apart here.

The subject of one assay is Jurkat cells. Nature of the assay: MET-ENK-FITC binding to Jurkat cells (flow cytometry, Scatchard). Also noted: species or system human.
In the next assay the test system is NALM 6 cells. Briefly: MET-ENK-FITC binding to NALM 6 cells (flow cytometry, Scatchard). Also noted: species or system human. For orientation: A flow cytometer gives signals particle by particle.
Where [1] appears, read: listed as methionine enkephalin.

For the compound `CSCC[C@H](NC(=O)[C@H](Cc1ccccc1)NC(=O)CNC(=O)CNC(=O)[C@@H](N)Cc1ccc(O)cc1)C(=O)O` [MET-ENK, Tyr-Gly-Gly-Phe-Met], the “Bmax, high affinity sites” value in the assay on Jurkat cells is 9×10^2 sites/cell; in the assay on Jurkat cells (setting [1]) it was 9.0×10^2 sites/cell; in the assay with NALM 6 cells it was 7.77×10^3 sites/cell; in the assay with NALM 6 cells (setting [1]), 7.77×10^3 sites/cell.
